Source: patent US8507464B2, “Phosphoramidate alkylator prodrugs” (Threshold Pharmaceuticals, Inc., priority 2005, dated 2013)

System: HT29 xenograft
Experiment: HT-29 human colon carcinoma xenograft mouse model (Example 50)
Assay type: in vivo
Conditions: day 25, vs vehicle
Experimental: Female CB17/SCID mice (purchased from Charles River, Cambridge, Mass.), 7-8 weeks of age, were allowed to acclimatize for at least three days, and handled under pathogen-free conditions. Human colon carcinoma cell line HT29 was obtained from the American Type Culture Collection. The cell lines were cultured and harvested as described in Example 47 above, and inoculated at 3×10^6 cells/animal in the peritoneal subcutaneous space. […]; in saline) on the days the combination therapy was scheduled; 5FU alone (in saline), or CDDP alone.
In control groups, tumors were implanted in two locations as part of a separate study of effect of location on control group tumor growth. […] The body weight and tumor volume were measured as described in Example 47. Tumor growth inhibition measured on day 25 when vehicle tumors had reached the maximal size and animals in that group were sacrificed is tabulated below.

Row | SMILES | % Inhibition vs Group 4 (Group 7: Compound 24 3 mg/kg ip (q1d × 5)/week × 3 week) [%] | % Inhibition vs Group 4 (Group 8: Compound 24 6 mg/kg ip (q1d × 5)/week × 3 week) [%] | % Inhibition vs Group 4 (Group 6: CDDP 5 mg/kg iv once) [%]
1 | O=[N+]([O-])c1ccc(COP(=O)(NCCBr)NCCBr)o1 [Compound 24] | 44.1 | 42.1 | –
2 | N.N.[Cl][Pt][Cl] [Cisplatin, cis-Diaminedichloroplatinum (II), reference compound] | – | – | 37.4
